From the supplement of paper PMC3334620
The full ranking holds about 33,000 sequences; the median of “E-score (-0.5 to 0.5)” is about -0.021, and the highest 2% start at about 0.32. This is one part of the list.

Target: T1, Zap1 (UniProt P47043)
T1 sequence: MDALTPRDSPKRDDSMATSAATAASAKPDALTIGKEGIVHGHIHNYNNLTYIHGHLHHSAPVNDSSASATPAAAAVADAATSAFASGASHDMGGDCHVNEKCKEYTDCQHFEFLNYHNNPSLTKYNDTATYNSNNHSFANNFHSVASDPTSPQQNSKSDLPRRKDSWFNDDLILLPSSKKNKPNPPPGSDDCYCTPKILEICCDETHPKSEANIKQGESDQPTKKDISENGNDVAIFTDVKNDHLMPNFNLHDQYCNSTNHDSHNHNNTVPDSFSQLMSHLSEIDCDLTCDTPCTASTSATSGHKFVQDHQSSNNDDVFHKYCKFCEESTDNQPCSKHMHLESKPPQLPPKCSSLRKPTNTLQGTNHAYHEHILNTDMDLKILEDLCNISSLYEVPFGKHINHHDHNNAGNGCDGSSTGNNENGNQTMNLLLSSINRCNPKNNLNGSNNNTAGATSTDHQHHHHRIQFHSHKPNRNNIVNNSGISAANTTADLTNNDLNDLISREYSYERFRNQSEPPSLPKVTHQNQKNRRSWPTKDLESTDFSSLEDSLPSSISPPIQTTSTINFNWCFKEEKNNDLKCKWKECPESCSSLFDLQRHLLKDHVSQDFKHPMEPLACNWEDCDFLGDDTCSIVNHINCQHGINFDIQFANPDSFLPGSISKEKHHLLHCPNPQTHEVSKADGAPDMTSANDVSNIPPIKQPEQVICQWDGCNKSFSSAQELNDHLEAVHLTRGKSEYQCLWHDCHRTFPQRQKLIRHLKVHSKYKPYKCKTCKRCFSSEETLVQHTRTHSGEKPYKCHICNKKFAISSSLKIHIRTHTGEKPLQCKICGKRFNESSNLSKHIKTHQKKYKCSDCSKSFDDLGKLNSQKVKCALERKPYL
Experiment: PBM E-score (8-mer binding enrichment) (E-score (-0.5 to 0.5)); higher = stronger / more preferred TF binding; most listed sequences are background and not binding sites
Details: protein concentration: 200 nM; construct: GST-full length
In short: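 The E-score, a modified Wilcoxon-Mann-Whitney statistic, was computed by the Universal PBM Analysis Suite for every ungapped eight-base word pooled with its reverse complement. Scans behind it were normalised with masliner after bound GST-tagged yeast transcription factors were detected with fluorescent anti-GST. The proteins, at about 100-200 nM, had been applied to universal all-10-mer Agilent arrays made double-stranded by primer extension.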

Sequence	PBM E-score
ATCAATAC	0.152
GAGATGCC	-0.299
CCCTTATC	0.0309
TAGGTCGA	0.0436
AAGGACGC	0.0453
ATGAAAAA	0.259
ACCGGTCT	-0.0074
AGTTTCAG	-0.198
ACGGCTAC	-0.0512
CAGTTAAG	0.0515
CCGGACCC	0.0912
AAGCGCGT	-0.206
ACATTCGC	-0.0674
AAGAGTAG	-0.0365
ACCAACGT	-0.0568
CGTGAAGC	-0.326
TGAGGAAA	0.022
AAGTGGGT	0.0704
ATAGGGAA	-0.13
GGCACTCA	-0.373
CAGCATGC	-0.154
ATGGCTCG	0.00687

Sequence	PBM E-score
CGACAAGA	-0.0244
ATCCTTCC	-0.306
CTCACTCA	-0.109
TGCGCGCA	-0.107
AGAACTAC	0.0953
CACCGCTG	0.0324
GAAGCCAA	-0.174
CGCAAAGA	0.13
ATTAATGC	-0.0271
ACCCGCTC	-0.0534
GAATGCAC	-0.0636
CACAAGAG	-0.0124
ATGGATCG	0.0279
GCTGCTCA	-0.151
CTCGACGC	0.0682
TAAGATTA	-0.0109
CCAGATGG	0.05
CCATCTAC	-0.147
ACTATAGC	-0.242
CTGTACAC	-0.158
ACGTTCAC	-0.226
CGGAAATC	-0.0168

Sequence	PBM E-score
CCGGACAG	-0.0732
CATAGAGA	0.0389
CAATTACA	-0.042
ACCACCGC	0.147
AATGGCAA	0.125
AGACGCTA	-0.167
CCCGGAAG	0.154
CCCGCCTC	-0.0685
AGGTCACG	0.406
GGTAGGAC	-0.00322
ATAGCGGC	-0.116
ATATTAGC	0.0529
AATGACAC	-0.221
CCTAGCAC	-0.0627
CGGTCATA	0.201
AAGCACGT	-0.3
TAGCAAGA	-0.0851
GCTACTAC	0.108
ATTTGGAC	-0.0184
GCAATCAA	0.0754
CCGCGACA	0.181
ATTACCCC	0.316

Sequence	PBM E-score
GGTGAGGA	0.0577
TACAATGA	0.0619
CTAAATAA	0.254
AGGATCAT	0.169
AATCGCCC	-0.167
GCGGGGTA	0.293
AGCCCGGG	-0.128
ATGCGGCG	-0.0249
AATCCAGA	0.101
GTCCTGAA	0.0284
AACATTCT	0.0247
CTGGACAC	0.0291
AACTCGTG	0.0591
AAACTGTT	0.00368
CAGAAGAA	-0.133
TCGGACGA	-0.154
ACTAAAAT	0.114
AGCAACTG	-0.00851
CTATTCCA	0.0678
GCTATTCA	-0.018
